# Source: the supplement of paper PMC8728848
# The other results are listed elsewhere or left out.
# B1: Cohesin-hDC-ASGPR (Homo sapiens) (protein)
# chain: LDDLDAVRIKVDTVNAKPGDTVRIPVRFSGIPSKGIANCDFVYSYDPNVLEIIEIEPGDIIVDPNPDKSFDTAVYPDRKIIVFLFAEDSGTGAYAITKDGVFATIVAKVKEGAPNGLSVIKFVEVGGFANNDLVEQKTQFFDGGANVGDTTEPATPTTPVTTPTTTDDLDAASQNSKFQRDLVTLRTDFSNFTSNTVAEIQALTSQGSSLEETIASLKAEVEGFKQERQAGVSELQEHTTQKAHLGHCPHCPSVCVPVHSEMLLRVQQLVQDLKKLTCQVATLNNNASTEGTCCPVNWVEHQDSCYWFSHSGMSWAEAEKYCQLKNAHLVVINSREEQNFVQKYLGSAYTWMGLSDPEGAWKWVDGTDYATGFQNWKPGQPDDWQGHGLGGGEDCAHFHPDGRWNDDVCQRPYHWVCEAGLGQTSQESHHHHHH
# Experiments:
# Assay in all cases: glycan array binding signal (z-score within array); higher = stronger binding
# Conditions in all cases: glycan notation: IUPAC condensed, linker removed
# [1] = target: Gal(b1-4)GlcNAc(b1-3)Gal(b1-4)GlcNAc(b1-2)[Gal(b1-4)GlcNAc(b1-3)Gal(b1-4)GlcNAc(b1-6)]Man(a1-6)[Gal(b1-4)GlcNAc(b1-3)Gal(b1-4)GlcNAc(b1-2)Man(a1-3)]Man(b1-4)GlcNAc(b1-4)GlcNAc
# Procedure, shortened: (§1)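 Glycan array data came from 3228 arrays in the Consortium for Functional Glycomics database, and only arrays with an available protein sequence were kept. Glycan names were put into IUPAC-condensed notation, and columns mapping to the same glycan were averaged. The binding signal is a within-array Z-score, averaged across arrays of one protein sequence run at different concentrations or buffers and across linkers. A negative Z-score can be read as non-binding.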
# [2] = target: Gal(b1-4)GlcNAc(b1-3)Gal(b1-4)GlcNAc(b1-2)[Gal(b1-4)GlcNAc(b1-3)Gal(b1-4)GlcNAc(b1-6)]Man(a1-6)[Gal(b1-4)GlcNAc(b1-3)Gal(b1-4)GlcNAc(b1-2)Man(a1-3)]Man(b1-4)GlcNAc(b1-4)[Fuc(a1-6)]GlcNAc
# Procedure, shortened: as §1
# [3] = target: Gal(b1-4)GlcNAc(b1-3)Gal(b1-4)GlcNAc(b1-3)Gal(b1-4)GlcNAc
# Procedure, shortened: as §1
# [4] = target: Gal(b1-4)GlcNAc(b1-3)Gal(b1-4)GlcNAc(b1-3)Gal(b1-4)GlcNAc(b1-2)Man(a1-3)[Gal(b1-4)GlcNAc(b1-3)Gal(b1-4)GlcNAc(b1-3)Gal(b1-4)GlcNAc(b1-2)Man(a1-6)]Man(b1-4)GlcNAc(b1-4)GlcNAc
# Procedure, shortened: as §1
# [5] = target: Gal(b1-4)GlcNAc(b1-3)Gal(b1-4)GlcNAc(b1-3)Gal(b1-4)GlcNAc(b1-2)Man(a1-3)[Gal(b1-4)GlcNAc(b1-3)Gal(b1-4)GlcNAc(b1-3)Gal(b1-4)GlcNAc(b1-2)Man(a1-6)]Man(b1-4)GlcNAc(b1-4)[Fuc(a1-6)]GlcNAc
# Procedure, shortened: as §1
# [6] = target: Gal(b1-4)GlcNAc(b1-3)Gal(b1-4)GlcNAc(b1-3)Gal(b1-4)GlcNAc(b1-2)[Gal(b1-4)GlcNAc(b1-3)Gal(b1-4)GlcNAc(b1-3)Gal(b1-4)GlcNAc(b1-6)]Man(a1-6)[Gal(b1-4)GlcNAc(b1-3)Gal(b1-4)GlcNAc(b1-3)Gal(b1-4)GlcNAc(b1-2)Man(a1-3)]Man(b1-4)GlcNAc(b1-4)[Fuc(a1-6)]GlcNAc
# Procedure, shortened: as §1
# [7] = target: Gal(b1-4)GlcNAc(b1-3)Gal(b1-4)GlcNAc(b1-3)Gal(b1-4)GlcNAc(b1-3)Gal(b1-4)GlcNAc(b1-2)Man(a1-3)[Gal(b1-4)GlcNAc(b1-3)Gal(b1-4)GlcNAc(b1-3)Gal(b1-4)GlcNAc(b1-3)Gal(b1-4)GlcNAc(b1-2)Man(a1-6)]Man(b1-4)GlcNAc(b1-4)GlcNAc
# Procedure, shortened: as §1
# [8] = target: Gal(b1-4)GlcNAc(b1-3)Gal(b1-4)GlcNAc(b1-3)Gal(b1-4)GlcNAc(b1-3)Gal(b1-4)GlcNAc(b1-2)Man(a1-3)[Gal(b1-4)GlcNAc(b1-3)Gal(b1-4)GlcNAc(b1-3)Gal(b1-4)GlcNAc(b1-3)Gal(b1-4)GlcNAc(b1-2)Man(a1-6)]Man(b1-4)GlcNAc(b1-4)[Fuc(a1-6)]GlcNAc
# Procedure, shortened: as §1
# [9] = target: Gal(b1-4)GlcNAc(b1-3)Gal(b1-4)GlcNAc(b1-3)Gal(b1-4)GlcNAc(b1-3)Gal(b1-4)GlcNAc(b1-2)[Gal(b1-4)GlcNAc(b1-3)Gal(b1-4)GlcNAc(b1-3)Gal(b1-4)GlcNAc(b1-3)Gal(b1-4)GlcNAc(b1-6)]Man(a1-6)[Gal(b1-4)GlcNAc(b1-3)Gal(b1-4)GlcNAc(b1-3)Gal(b1-4)GlcNAc(b1-3)Gal(b1-4)GlcNAc(b1-2)Man(a1-3)]Man(b1-4)GlcNAc(b1-4)[Fuc(a1-6)]GlcNAc
# Procedure, shortened: as §1
# [10] = target: Gal(b1-4)GlcNAc(b1-3)Gal(b1-4)GlcNAc(b1-3)Gal(b1-4)GlcNAc(b1-3)Gal(b1-4)GlcNAc(b1-3)Gal(b1-4)GlcNAc(b1-2)Man(a1-3)[Gal(b1-4)GlcNAc(b1-3)Gal(b1-4)GlcNAc(b1-3)Gal(b1-4)GlcNAc(b1-3)Gal(b1-4)GlcNAc(b1-3)Gal(b1-4)GlcNAc(b1-2)Man(a1-6)]Man(b1-4)GlcNAc(b1-4)GlcNAc
# Procedure, shortened: as §1
# [11] = target: Gal(b1-4)GlcNAc(b1-3)Gal(b1-4)GlcNAc(b1-3)Gal(b1-4)GlcNAc(b1-3)Gal(b1-4)GlcNAc(b1-3)Gal(b1-4)GlcNAc(b1-2)Man(a1-3)[Gal(b1-4)GlcNAc(b1-3)Gal(b1-4)GlcNAc(b1-3)Gal(b1-4)GlcNAc(b1-3)Gal(b1-4)GlcNAc(b1-3)Gal(b1-4)GlcNAc(b1-2)Man(a1-6)]Man(b1-4)GlcNAc(b1-4)[Fuc(a1-6)]GlcNAc
# Procedure, shortened: as §1
# [12] = target: Gal(b1-4)GlcNAc(b1-3)Gal(b1-4)GlcNAc(b1-3)Gal(b1-4)GlcNAc(b1-3)Gal(b1-4)GlcNAc(b1-3)Gal(b1-4)GlcNAc(b1-2)[Gal(b1-4)GlcNAc(b1-3)Gal(b1-4)GlcNAc(b1-3)Gal(b1-4)GlcNAc(b1-3)Gal(b1-4)GlcNAc(b1-3)Gal(b1-4)GlcNAc(b1-6)]Man(a1-6)[Gal(b1-4)GlcNAc(b1-3)Gal(b1-4)GlcNAc(b1-3)Gal(b1-4)GlcNAc(b1-3)Gal(b1-4)GlcNAc(b1-3)Gal(b1-4)GlcNAc(b1-2)Man(a1-3)]Man(b1-4)GlcNAc(b1-4)[Fuc(a1-6)]GlcNAc
# Procedure, shortened: as §1
# [13] = target: Gal(b1-4)GlcNAc(b1-3)Gal(b1-4)GlcNAc(b1-3)Gal(b1-4)GlcNAc(b1-3)Gal(b1-4)GlcNAc(b1-3)Gal(b1-4)GlcNAc(b1-3)Gal(b1-4)GlcNAc(b1-2)Man(a1-3)[Gal(b1-4)GlcNAc(b1-3)Gal(b1-4)GlcNAc(b1-3)Gal(b1-4)GlcNAc(b1-3)Gal(b1-4)GlcNAc(b1-3)Gal(b1-4)GlcNAc(b1-3)Gal(b1-4)GlcNAc(b1-2)Man(a1-6)]Man(b1-4)GlcNAc(b1-4)GlcNAc
# Procedure, shortened: as §1
# [14] = target: Gal(b1-4)GlcNAc(b1-3)Gal(b1-4)GlcNAc(b1-3)GalNAc
# Procedure, shortened: as §1
# [15] = target: Gal(b1-4)GlcNAc(b1-3)Gal(b1-4)GlcNAc(b1-3)[Gal(b1-4)GlcNAc(b1-3)Gal(b1-4)GlcNAc(b1-6)]GalNAc
# Procedure, shortened: as §1
# [16] = target: Gal(b1-4)GlcNAc(b1-3)Gal(b1-4)GlcNAc(b1-6)[Gal(b1-3)]GalNAc
# Procedure, shortened: as §1
# [17] = target: Gal(b1-4)GlcNAc(b1-3)Gal(b1-4)[Fuc(a1-3)]GlcNAc(b1-3)Gal(b1-4)[Fuc(a1-3)]GlcNAc
# Procedure, shortened: as §1
# [18] = target: Gal(b1-4)GlcNAc(b1-3)GalNAc
# Procedure, shortened: as §1
# [19] = target: Gal(b1-4)GlcNAc(b1-3)[Fuc(a1-3)GlcNAc(b1-6)]Gal(b1-4)Glc
# Procedure, shortened: as §1
# [20] = target: Gal(b1-4)GlcNAc(b1-3)[Gal(b1-4)GlcNAc(b1-6)]Gal(b1-4)GlcNAc
# Procedure, shortened: as §1
# [21] = target: Gal(b1-4)GlcNAc(b1-3)[GlcNAc(b1-6)]Gal(b1-4)GlcNAc
# Procedure, shortened: as §1
# [22] = target: Gal(b1-4)GlcNAc(b1-6)Gal(b1-4)GlcNAc
# Procedure, shortened: as §1
binder,measurement,setting,value
B1,glycan array binding signal (z-score),[1],1.87
same,glycan array binding signal (z-score),[2],-0.424
same,glycan array binding signal (z-score),[3],-0.492
same,glycan array binding signal (z-score),[4],-0.325
same,glycan array binding signal (z-score),[5],-0.426
same,glycan array binding signal (z-score),[6],-0.427
same,glycan array binding signal (z-score),[7],-0.386
same,glycan array binding signal (z-score),[8],-0.433
same,glycan array binding signal (z-score),[9],-0.246
same,glycan array binding signal (z-score),[10],-0.419
same,glycan array binding signal (z-score),[11],-0.366
same,glycan array binding signal (z-score),[12],-0.362
same,glycan array binding signal (z-score),[13],-0.398
same,glycan array binding signal (z-score),[14],-0.415
same,glycan array binding signal (z-score),[15],-0.302
same,glycan array binding signal (z-score),[16],-0.39
same,glycan array binding signal (z-score),[17],-0.385
same,glycan array binding signal (z-score),[18],-0.5
same,glycan array binding signal (z-score),[19],-0.486
same,glycan array binding signal (z-score),[20],-0.505
same,glycan array binding signal (z-score),[21],-0.407
same,glycan array binding signal (z-score),[22],-0.462
